# The list shows a part of the results. At the low end of the ranking the order means little.
# Target: T1, GST-Rok (full length) (UniProt O34857)
# T1 sequence: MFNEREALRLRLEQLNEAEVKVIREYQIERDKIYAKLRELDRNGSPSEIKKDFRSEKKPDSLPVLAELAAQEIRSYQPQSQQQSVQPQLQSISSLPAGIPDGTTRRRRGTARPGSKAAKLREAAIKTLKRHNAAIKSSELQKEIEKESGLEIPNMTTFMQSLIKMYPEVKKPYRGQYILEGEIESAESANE
# Experiment: protein binding microarray;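 also: rank score from −0.5 (least bound) to 0.5 (best bound)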
# Settings: Rok is a gene silencer of Bacillus subtilis; high values mean tight binding; most listed sequences are background and not binding sites; double strand, one strand shown
row,Sequence,binding signal [E-score]
1,GCGACCCC,-0.377
2,TGATATCA,0.275
3,CCTAGCAC,-0.1
4,CATCCGAA,-0.16
5,GGTCTCTA,0.0202
6,ACAAAAGC,0.121
7,GTACATAA,0.303
8,CTTAAACC,-0.109
9,CGGCTTCA,-0.26
10,ATCGCTTA,0.0672
11,GGGGCGCA,-0.366
12,GAATGGCC,-0.15
13,CCACGGAA,0.0441
14,CCTTCCGC,-0.245
15,ACGCAAGT,-0.122
16,CACTTGCC,-0.13
17,CACTCCCA,-0.224
18,CGTAGTGC,0.0664
19,CAGCAGCA,-0.0504
20,AAAATCAA,-0.00492
21,ATCAGCCA,-0.0584
22,AACATACT,0.136
23,ACCGCAAG,-0.157
24,GTATCGAA,0.0625
25,CATATGTA,0.338

row,Sequence,binding signal [E-score]
1,GCATTTTA,0.191
2,AGGCGCTA,-0.15
3,ACATGTAT,0.167
4,TAACGCCA,-0.189
5,GGTCCTTA,-0.176
6,GGTAAAAA,0.349
7,CCTTGAAG,-0.235
8,ACACAGAG,-0.0986
9,AGGTTGCG,0.0775
10,CCGGGATC,-0.283
11,GCCGCCGC,-0.281
12,CGCTGGTC,-0.221
13,ATCTGCAC,-0.176
14,GGCCCCCA,-0.471
15,CATTACCA,0.14
16,CCGGATGC,-0.184
17,CCGAAATC,-0.098
18,TCAGCGCA,-0.0441
19,ACTGTTTG,0.106
20,CGCCTCGA,-0.18
21,AGGATTTC,-0.0619
22,GTGGAAAA,-0.0589
23,TATCTTCA,0.162
24,ACCTTGGA,-0.145
25,ACGGCGTA,0.0265

row,Sequence,binding signal [E-score]
1,CATCAAAG,0.0902
2,ATTCCCCA,-0.171
3,ACGCTCTA,0.147
4,CTATACTC,0.137
5,AGGATCTC,-0.0828
6,ATCTGGAG,-0.112
7,CAGCCCGC,-0.285
8,AAATCGAG,-0.063
9,ACGGCGTC,-0.237
10,GGCACATA,-0.0396
11,ACACTTGG,0.0922
12,CCGAAAAA,-0.117
13,GGGGCGAC,-0.279
14,AGTCACTA,0.0846
15,ACTTAAGT,0.212
16,GAATAAGC,-0.0545
17,AACACCAA,0.000516
18,ACTAAATG,0.277
19,ATTTACCA,0.322
20,AACACTTC,0.113
21,ATTGCTTC,0.0898
22,CACGGTGC,-0.28
23,ACTTGTAA,0.168
24,ATCAAGGC,-0.121
25,CTCTGCAG,-0.0862

row,Sequence,binding signal [E-score]
1,GGGGTAAA,0.0577
2,CGGAAATC,0.0575
3,TATCCGCA,0.0642
4,TAAAACGA,0.111
5,CAGACTCG,-0.06
6,CGCGAGGC,-0.245
7,GCGTTGAA,-0.212
8,GAACGAGA,-0.0634
9,GTAGTAGA,0.33
10,CGTGCCGA,-0.261
11,ACAAGGGG,-0.231
12,GCAGAGGA,-0.0443
13,GAGCAGTA,-0.0236
14,CGTCAATA,0.12
15,ATAATATA,0.453
16,AAGTCCGG,-0.245
17,GAGACTGA,0.0243
18,AGGACCCC,-0.256
19,CCCGGTGA,-0.283
20,ATAAAATG,0.203
21,ACCATCGA,0.0749
22,GCGCACGC,-0.158
23,AATGGGCG,-0.262
24,CCAGACGC,-0.247
25,CCATAAAC,-0.00276

row,Sequence,binding signal [E-score]
1,CGACGCTC,-0.165
2,AACCATGG,-0.0493
3,TCTGGAAA,0.0895
4,AATGGCGA,-0.0409
5,ATGTCGAA,0.195
6,CGGACCCA,-0.264
7,ACATCACG,-0.15
8,ACAAATAG,0.317
9,ACATGAAT,0.214
10,ACGTTAAC,0.02
11,CACCTGAG,-0.158
12,AACTTCTT,-0.00379
13,CACGTATC,-0.00485
14,GAGATCAA,-0.104
15,AGTCGTCA,0.00488
16,AACTTGCC,0.13
17,GCTACGGA,0.149
18,AGACCAGG,-0.179
19,CTTGAGAA,-0.0173
20,AGGTGAAA,-0.0291
21,AGTCTTAG,-8.19e-05
22,CAAATGTC,-0.136
23,CCCAAAGC,-0.18
24,AACTGGTA,0.325
25,AACCCATC,-0.0588

row,Sequence,binding signal [E-score]
1,TCGCCGCA,-0.0504
2,AACTCGTA,0.171
3,TCGGGTCA,-0.14
4,ATACGAAG,-0.0252
5,GATGGACC,-0.171
6,CGTCTTAA,-0.0347
7,CAGTTTAC,-0.0117
8,AATACTAC,0.419
9,CAACAATC,0.18
10,AACAAATC,-0.0733
11,AGGATCAT,-0.056
12,CCGACGGC,-0.271
13,AAAGGGCC,-0.386
14,GCCTCTAA,-0.168
15,TACGGGCA,-0.212
16,AGGCATAA,0.0499
17,GTAAGAAA,0.327
18,AATGCGCT,0.109
19,ATCTTAAG,0.0411
20,CCTGTACA,0.0121
21,AGCATATG,0.233
22,GTGCTTCA,-0.109
23,AAATTAAC,0.305
24,CCAACGGG,-0.219
25,TAATAGTA,0.401

row,Sequence,binding signal [E-score]
1,TCAAGTGA,-0.0359
2,ATTGCGCC,-0.157
3,CATCGGAC,-0.0456
4,CCTTACTA,0.145
5,AAATACGA,0.118
6,CATCGAGA,-0.0077
7,AGCCGAAT,0.0128
8,ACGAGCTC,-0.355
9,ACACAATC,-0.0151
10,ATAGGCAT,-0.14
11,CATGGGTA,0.113
12,AAGGTGGA,-0.167
13,AGACGATG,-0.0471
14,ACGATCAA,-0.0817
15,TCCAGCCA,0.0502
16,GGGAAACA,0.0326
17,CAGCTAAA,0.0144
18,TCAAGCCA,-0.209
19,AGTTTCCA,0.18
20,TACGGTGA,0.0146
21,GGTTGCGA,-0.0742
22,ACCCGCCA,-0.286
23,AGACGTAC,0.113
24,AGTCCACA,-0.0563
25,ATAACAAG,0.129

row,Sequence,binding signal [E-score]
1,CAATGGAG,-0.17
2,AGCCCGCT,-0.234
3,AACACGCC,-0.215
4,ACGCGGAC,-0.204
5,ATGCGCAG,-0.0163
6,AGTGACTG,-0.18
7,CTTTCGAC,-0.178
8,AAGTTATG,0.294
9,CGCTGGAA,-0.205
10,ACCCTCAA,-0.259
11,GTAAAGAA,0.0756
12,CGAGGAAG,-0.258
13,AAACCAGC,0.0208
14,CCGCAGAG,-0.152
15,AACGGCTA,0.0361
16,CATATAAC,0.268
17,AGGAAATG,-0.0514
18,GCTCTGGA,-0.233
19,GACCCAAA,-0.0617
20,CCTCACCC,-0.165
21,AATGGCAG,0.0409
22,AGTATAGC,-0.0248
23,CACTATAG,0.132
24,AACTAAGG,0.149
25,AGACGTGG,-0.238

row,Sequence,binding signal [E-score]
1,AGGAAGAT,0.126
2,ATAAATTC,0.221
3,AATGACTA,0.122
4,GCCCGAAC,0.00454
5,GCCCGACC,-0.349
6,CAAGGTGA,-0.15
7,AACCAATA,0.213
8,AGACGTAA,-0.0573
9,GGCCGATA,0.0786
10,CAATTGGG,-0.169
11,GCCAAACC,-0.183
12,GCGCCAAA,-0.0786
13,GCTACAAA,0.159
14,CCTTGAGA,-0.16
15,GCCTTAGC,-0.0735
16,ACTGCGGA,-0.234
17,TCCGGCGA,-0.169
18,CTGGGCAA,-0.124
19,GGCTGCAA,-0.403
20,CGACTCCG,-0.293
21,ACCCTCGT,-0.215
22,TAGGTACA,0.207
23,CGAGCAAG,-0.16
24,ACTCAGAG,0.0293
25,AGGGACCC,-0.204

row,Sequence,binding signal [E-score]
1,CTGAAGGA,-0.255
2,CGACAGCG,-0.036
3,TAGTTGGA,-0.00389
4,CGAGGGTA,-0.0923
5,CCAGCTAG,0.0501
6,AACAGTGG,-0.0354
7,CCTAGGCA,-0.107
8,CGAAAGTC,-0.0924
9,CGTACATA,0.243
10,ATTGCTGC,0.156
11,CAGACTTC,0.00972
12,AATTGGCG,0.0811
13,GTATAAAC,0.16
14,ACTCCGAG,-0.131
15,GACGCGAC,-0.213
16,AGTGTAGC,0.0592
17,GCGGCTTA,-0.246
18,AGTGTTGC,-0.0159
19,ACTACGCC,-0.0446
20,CAAATTAC,0.356
21,AGTGTCCG,0.013
22,CTCCAGAA,-0.00511
23,ACGACACT,-0.0609
24,ACATAATG,0.27
25,CAACCGTC,-0.132

row,Sequence,binding signal [E-score]
1,TCGTCCAA,-0.131
2,CATAAGCA,0.0136
3,CCAAGAGC,-0.21
4,ACCAATGC,-0.0223
5,AACGAGAG,-0.0468
6,AGTTGAGG,-0.0249
7,ATCGCTGA,-0.0945
8,AACCCTCT,-0.137
9,AGAGAACG,0.0786
10,CCCATCAG,-0.199
11,CCGCTGCC,-0.234
12,ATACCGTC,0.105
13,CTACCGTA,0.311
14,AATGACGA,0.0989
15,AACCTCCT,-0.0922
16,GAACGCAA,0.0471
17,AATCGCAT,0.0612
18,ACTGTCAG,-0.0887
19,GCGACGCC,-0.228
20,CGGAATGC,-0.154
21,GAGAGCGC,-0.232
22,CGTTCCAC,-0.021
23,CCAATGTA,0.0945
24,TCCTTTCA,-0.131
25,GAGTGCTA,0.136

row,Sequence,binding signal [E-score]
1,AAGCAACC,-0.143
2,CCCCCAAA,-0.353
3,CCGCCACA,-0.129
4,CTTTGGTC,-0.0411
5,GGTAACAC,0.0456
6,GAGTAACC,-0.000947
7,GTCAGTGA,-0.0974
8,AATCTTCT,0.121
9,GTTAGATA,0.241
10,AGACGTGA,-0.117
11,CGACAAGC,-0.2
12,TCAGCTCA,-0.129
13,ATTGTATA,0.32
14,ACCACCCT,-0.178
15,ATCTGGCC,-0.287
16,AGCGGTTC,-0.145
17,AGCCAACG,-0.22
18,TTCTTAAA,0.112
19,CCTAATAC,0.174
20,ACGGCGCC,-0.271
21,GTCGGCAC,-0.269
22,GGGTTGAC,-0.132
23,AATGAAAT,0.182
24,TTAGCGAA,-0.0273
25,ACACCCCT,-0.364

row,Sequence,binding signal [E-score]
1,ATATAAGG,0.0146
2,GAAGCGGC,-0.242
3,ATTCAAGC,-0.0301
4,CCCTTAAG,-0.251
5,ATGAAGCA,-0.146
6,GAGACAGC,-0.0967
7,ATGCCCTA,-0.0587
8,TGTTTTAA,0.135
9,TCATGGAA,0.107
10,ACAACCAT,-0.0213
11,CCCATAGG,-0.27
12,TAATTCTA,0.345
13,AACAGAGT,0.0366
14,GATGGTCC,-0.15
15,AGCCCTTA,-0.135
16,GCCGTCGA,-0.222
17,GGGGGACC,-0.442
18,AGAAGATA,0.168
19,CCACATTC,-0.037
20,GCCACCCC,-0.331
21,ACAACGGA,0.0198
22,CAAGCTTG,0.0805
23,AGAACAAT,0.0745
24,CCGGGTAA,-0.0598
25,AACATCTA,0.236

row,Sequence,binding signal [E-score]
1,GTCGTCAA,-0.0888
2,AAGCTGGC,-0.291
3,AACGGATT,-0.138
4,CACGCTGA,-0.189
5,ACCTTAAT,0.225
6,ATACTAAG,0.175
7,TCGCCGAA,-0.00469
8,CTAATCTC,0.0718
9,ACGGAGTA,0.0618
10,ATGGTGCG,-0.116
11,AAAGAGAC,-0.115
12,CCATTGCG,-0.13
13,AGTCTGCG,0.0274
14,AGGGATGC,-0.295
15,AAACTTCT,0.26
16,AGCTCACC,-0.298
17,CAGAGAGC,-0.152
18,AGCGAGTA,0.19
19,GAAGAGGA,-0.191

# — article PMC6212790
